Measured values reported in the RNAGym collection of RNA variant scans (doi:10.1073/pnas.2313332121).
Variants at the background level are over-represented here.

B1: TPR 5TU (parent)
chain: GGAUCUUCUCGAUCUAACAAAAAAGACAAAUCUGCCACAAAGCUUGAGAGCAUCUUCGGAUGCAGAGGCGGCAGCCUUCGGUGGCGCGAUAGCGCCAACGUUCUCAACUAUGACACGCAAAACGCGUGCUCCGUUGAAUGGAGUUUAUCAUG

Variants of: B1
Assay: polymerase ribozyme fitness, log enrichment relative to wild type (log ratio); higher = more active; in vitro selection for triplet polymerase activity
Procedure, shortened: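 PCR was used to build mutant libraries for each subunit of a heterodimeric triplet polymerase ribozyme, which were then transcribed. A single in vitro selection round, in triplicate, used a frozen incubation at −7 °C and recovered extended constructs by gel excision, streptavidin beads and RT-PCR. Fitness is the logarithm of genotype enrichment relative to wild-type enrichment, averaged over replicates with inverse-variance weights. The logarithm is base 2, and after Illumina sequencing only genotypes with ≥10 input reads and ≥1 read per output were kept.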

Variant	polymerase ribozyme fitness (log ratio)
GGAUCUUCUCGAUCUAACAAAAAAGACAAAUCUGCCACAAACCUUGAGAGCAUCUUCGGAUGCAGAGGCGGCAGCCUUCGGGGGCGCGAUAGCGCCAACGUUCACAACUAUGACAUGCAAAACGCGUGCUCCGUUGGAUGGAGUUUAUCAUA [G42C U82G U104A C116U A137G G152A]	≤ -4.2
GGAUCUUCUCGAUCUAACAAAAAAGACAAAUCUGCCACAAACCUUGAGAGCAUCAUCGGAUGCAGAGGCGGCAGCCUUCGGAGGCGCGAUAGCGCCAACGUUCUCUACUAUGACACGCAAAACGCGUGCUCCGUUGAAUGGAGUUUAUCAUG [G42C U55A U82A A106U]	≤ -4.2
GGAUCUUCUCGAUCUAACAAAAAAGACAAAUCUGCCACAAAUCUUGAGAGCAUCUUCGGAUGCAGAGGCGGCAGCCUUCGGUGGCGCGAUAGCGCCAACGUUCUCAACUAUGACAGGCAAAACGAGUGCUCCGUUGAAUGGAGUUUAUCAUG [G42U C116G C125A]	≤ -4.2
GGAUCUUCUCGAUCUAACAAAAAAGACAAAUCUGCCACAAACCUUGAGAGCAUCUGCGGAUGCAGAGGCGGCAGCCUUCGGUGGCGCGAUAGCGCCAACGUUCUCAACUAUGACACGCAAAACGCGUGCUCCGUUGAAUGGAGAUUAUCAUG [G42C U56G U144A]	≤ -4.2
GGAUCUUCUCGAUCUAACAAAAAAGACAAAUCUGCCACAAACCUUGAGAGCAUCUGCGGAUGCAGAGGCGGCAGCCUUCGGUGGCGCGAUAGCGCCAACGUUCUCAACUAUGAUACGCAAAACGCGAGCUCCGUUGACUGGAGUUUAUCAUG [G42C U56G C114U U127A A138C]	≤ -4.2
GGAUCUUCUCGAUCUAACAAAAAAGACAAAUCUGCCACAAAUCUGGAGAGCACCUUCGGAUGCAGAGGCGGCAGCCUUCGGUGGCGCUAUAGCGCCAACGUUCUCAACUAUGACACGCAAAACGCGUGCUCCGUUGCAUGGAGUUUAUCAUG [G42U U45G U53C G88U A137C]	≤ -4.2
GGAUCUUCUCGAUCUAACAAAAAAGACAAAUCUGCCACAAACCUUGAGAGCAUCUACGGAUGCAGAGGCGGCAGCCUUCGGUGGCGCGAUAGCGCCAACGUUCUCAACUAUGACACGCAAAACGCGUGCUCCGUUGAAUGCAGUUUAUCAUG [G42C U56A G141C]	≤ -4.2
GGAUCUUCUCGAUCUAACAAAAAAGACAAAUCUGCCACAAAUCUUGAGAGCAUCUUCGGAUGCAGAGGCGGCAGCCUUCGGUGGCGCAAUAGCGCCAACGUUCUGAACUAUGACACGCAAAACGCGUGCUCCGUUGAAUGGAGUUUAUCAUG [G42U G88A C105G]	≤ -4.2
GGAUCUUCUCGAUCUAACAAAAAAGACAAAUCUGCCACAAAUCUUGAGAGCAUCUUCGGAUGCAGAGGCCGCAGCCUUCGGUCGCGCGAUAGCGCCAACGUUCUCAACUAUGACACGCAAAACGCGUGCUCCGUUGAAUGCAGUUUAUCAUG [G42U G70C G83C G141C]	≤ -4.2
GGAUCUUCUCGAUCUAACAAAAAAGACAAAUCUGCCACAAAUCUUGAGAGCAUCUUCGGAUGCCGAGGCGGCAGCCUUUGGUAGCGCGAUAGCGCCAACGUUCUCAACUAUGACACGCAAAACGCGUGCUCCGUUGAAUGGAGUUUAUCAUG [G42U A64C C79U G83A]	≤ -4.2
GGAUCUUCUCGAUCUAACAAAAAAGACAAAUCUGCCACAAAUCUUGACAGCAUCUUCGGAUGCAGAGGCGGCAGCCUUCGGUGGCGCGAUAACGCCAACGUUCUCAUCUAUGACACGCAAAACGCGUGCUCCGUCGAAUGGAGUUUACCAUG [G42U G48C G92A A107U U135C U148C]	≤ -4.2
GGAUCUUCUCGAUCUAACAAAAAAGACAAAUCUGCCACAAAUCUUGAGAGCAUCGUCGAAUGCAGAGGCGGCAGCCUUCGGUGGCGCUAUAGCGCGAGCGUUCUCAACUAUGACACGGAAAACGCGUGCUCCGUUGAAUGGAGUUUAUCAUG [G42U U55G G59A G88U C96G A98G C118G]	≤ -4.2
GGAUCUUCUCGAUCUAACAAAAAAGACAAAUCUGCCACAAACCUUGAGAGCAACUUCGGAUGCAGAGGCGGCAGCCUUAGGUGUCGCGAUAGCGCCAACGUUCUCAAAUAUGACACGCAAAACGCGUGCUGCGUUGAAUGGAGUUUAUCAUG [G42C U53A C79A G84U C108A C131G]	≤ -4.2
GGAUCUUCUCGAUCUAACAAAAAAGACAAAUCUGCCACAAAUCUUGAGAGCAUCUUCGGAUGAAGAGGUGGCAGCCUUCGGUGGGGCGAUAGCGCCACCGUUCUCAUCUAUGACACGCAAAACGCGUGCUCCGUUGAAUGGAGUUUAUCAUG [G42U C63A C69U C85G A98C A107U]	≤ -4.2
GGAUCUUCUCGAUCUAACAAAAAAGACAAAUCUGCCACAAAUCUUGAGAGCCUCUUCGGAUGCAGAGGAGGCAGCCUUCGGUGGCGCGAAAGUGCCAACGUUCUCAACUAUGACACGCAAAACGCGUGCUCCGUUGAAUGGAGUUUAUCAUG [G42U A52C C69A U90A C93U]	≤ -4.2
GGAUCUUCUCGAUCUAACAAAAAAGACAAAUCUGCCACAAAUCUUGAGAGCAUCUACGGAUGCAGAGGCGGCAGCCUUCGGUGGCGCGAUAGCGCCAACGUUCUCAACUAUGACACGCAUAACGCGUGCUCCGUUGAAUGGCGUUUAUCAUG [G42U U56A A120U A142C]	≤ -4.2
GGAUCUUCUCGAUCUAACAAAAAAGACAAAUCUGCCACAAAUCUUGAGAGCAUCUACGGAUGCAGAGGCGGCAGCCUUCGGUGGCGCGAUAGGGCCAACGUUCUCAACUAUGACACGCAAAACGCGUUCUCCGUUGAAUGGAGUUUAUCAUG [G42U U56A C93G G128U]	≤ -4.2
GGAUCUUCUCGAUCUAACAAAAAAGACAAAUCUGCCACAAAUCUUGAGAGCAGCUUCCGAUGCAGAGGCGGCAGCCUUCGGUGGCGUGAUAGCGCCAACGUUCUCAACUAUGACACGCAAGACGCGUGCUCCGUUGAAUGGAGAUUAUCAUG [G42U U53G G58C C87U A121G U144A]	≤ -4.2
GGAUCUUCUCGAUCUAACAAAAAAGACAAAUCUGCCACAAACCUUGAGAGCAUCAUCGGAUGCAGAGGCCGCAGCCUUCGGUGGCGCGAUAGCGCUAACGUUCUCAACUAUGACACGCAAAACGCGUGCUCCGUUGAAUGGAGUUUAUCAUG [G42C U55A G70C C96U]	≤ -4.2
